SMILES strings stand for the structures. Where “and” joins values, the source holds several entries; their conditions need not be identical. Equal entries are not always repeated. Out of some 110,000 compounds screened, about 230 (0.21%) showed an effect of 50% or more. The list shows a part of the results.
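Also: 30 min substrate incubation versus DMSO and 10 µM JCP410 controls.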

The target in the assay is DPAP1 (Plasmodium falciparum, UniProt Q8IIJ9). In words: primary screen, percent inhibition; read by cleavage of a fluorogenic dipeptide substrate; higher = more effect of the substance. The arrangement: species or system P. falciparum D10 trophozoite lysates; single well.
Sequence of DPAP1 (Q8IIJ9 whole entry, looked up): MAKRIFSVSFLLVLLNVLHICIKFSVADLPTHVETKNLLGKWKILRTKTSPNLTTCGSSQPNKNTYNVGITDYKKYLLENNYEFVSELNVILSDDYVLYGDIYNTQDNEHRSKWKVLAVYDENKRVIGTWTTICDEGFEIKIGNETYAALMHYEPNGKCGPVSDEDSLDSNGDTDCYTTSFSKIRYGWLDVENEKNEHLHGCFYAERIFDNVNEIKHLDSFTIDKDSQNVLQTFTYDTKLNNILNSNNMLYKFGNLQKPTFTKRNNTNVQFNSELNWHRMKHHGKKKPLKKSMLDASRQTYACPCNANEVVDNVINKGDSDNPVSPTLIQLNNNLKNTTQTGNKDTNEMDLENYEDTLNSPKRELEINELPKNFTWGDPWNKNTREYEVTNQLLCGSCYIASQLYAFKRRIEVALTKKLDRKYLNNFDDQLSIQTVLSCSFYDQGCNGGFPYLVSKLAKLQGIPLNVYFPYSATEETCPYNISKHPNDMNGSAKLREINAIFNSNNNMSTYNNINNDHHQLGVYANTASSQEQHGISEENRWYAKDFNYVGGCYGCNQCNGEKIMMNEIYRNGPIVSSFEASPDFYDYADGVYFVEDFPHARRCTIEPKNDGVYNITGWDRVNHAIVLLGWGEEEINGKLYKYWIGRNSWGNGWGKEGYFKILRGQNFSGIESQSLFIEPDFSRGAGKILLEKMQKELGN
As to `COc1ccc(-c2cc(C)no2)cc1S(=O)(=O)NCc1ccccc1Cl`, the “% Inhibition @ 10 uM” value was -2.46%.
Under `O=C1NCCCC2c3cc(O)c4ccccc4c3OC12N1CCCCC1` (centres unmarked) stands 1.03%; under `O=C(CSCc1c(Cl)cccc1Cl)Nc1cc(C(=O)O)cc(C(=O)O)c1`, 2.67%; under `c1ccc(OCCCCN2CCCC2)cc1`, 1.13%.
The result for `N#C/C(=C\c1ccc(Br)o1)c1nc(-c2ccc(-c3ccccc3)cc2)cs1` reads 0.705%; that for `NCC(c1ccccc1)c1ccc(Cl)cc1Cl` (centres unmarked), -1.38%.
`CC1CCC(N[C@H]2CC[C@H](O)CC2)CC1` (some centres unmarked): the “% Inhibition @ 10 uM” value worked out at 3.19%.
Under `COc1cc(C(=O)NCc2cccs2)cc(OC)c1OC` stands -2.32%; under `CCOC(=O)C1C(=O)CC(O)(c2cccc([N+](=O)[O-])c2)CC1C=C(Cl)Cl` (centres unmarked), 1.7%.
`Cc1ccccc1C(=O)NCCSc1c[nH]c2ccccc12`: the “% Inhibition @ 10 uM” value is given as 1.94%.
Under `CC(C)(C)C1CCc2c(sc(NC(=O)COc3ccccc3F)c2C#N)C1` (centres unmarked) stands 0.776%.
On to `COc1ccc(CN2CCN(Cc3ccc4c(c3)OCO4)CC2)c(OC)c1OC`, for which the “% Inhibition @ 10 uM” value is listed as -0.67%.
Under `O=c1/c(=C/C2=Cc3ccccc3OC2)sc2nc(-c3ccccc3Br)nn12` stands -1.18%.
The result for `c1ccc(-c2nnc(CNCCN3CCOCC3)o2)cc1` reads 2.14%.
The result for `O=C1OC(c2ccc(Br)o2)=N/C1=C\c1ccc(Cl)c(Cl)c1` reads 5.75%; that for `COc1ccc(S(=O)(=O)NCCc2nnc3ccc(SCc4ccccc4)nn23)cc1`, 1.13%.
For `CCOc1ccccc1NC(=O)c1cccnc1`, the “% Inhibition @ 10 uM” value was 5.06%.
Consider `c1ccc2c(N3CCOCC3)c3c(nc2c1)CCC3`, for which the “% Inhibition @ 10 uM” value is -6.62%.
Under `CCOC(=O)N1CCC(NCCc2ccc(OC)cc2)CC1` stands 3.48%; under `Cc1ccc(Cn2c(=N)c(C#N)cc3c(=O)n4cccc(C)c4nc32)cc1`, 0.983%.
Under `O=C(O)CCC(=O)Nc1cc(C(F)(F)F)ccc1Cl` stands -8.21%; under `COc1ccccc1OCC(=O)Nc1ccc(S(=O)(=O)N2CCc3ccccc32)cc1`, -0.425%; under `Cc1cc(O)n2nc(Cc3ccccc3)c(-c3ccccc3)c2n1`, -3.44%.
Under `COc1ccc(-c2noc(CSc3nnc(-c4ccccc4)n3C)n2)cc1OC` stands -2.21%; under `COc1ccccc1S(=O)(=O)Cc1ccc(C(=O)NCc2ccc3c(c2)OCO3)o1`, 0.458%; under `Cc1ccc(OCC(=O)Nc2cc(Cl)c(O)c(Cl)c2)cc1`, -7.83%.
In the case of `O=[N+]([O-])c1cnc(-c2ccc(Br)cc2)nc1`, the “% Inhibition @ 10 uM” value is -4.15%.
The result for `CCCC(C)C(=O)Nc1ccc(OC)cc1` (centres unmarked) reads 2.44%.
Under `Cc1cccc(C(=O)NC(=O)Nc2nc(C)cc(C(F)(F)F)n2)c1` stands 0.9%.
Take `C=CCNC(=S)Nc1sc2c(c1C(=O)OCC)CCC(C)C2` (centres unmarked): the “% Inhibition @ 10 uM” value is given as 0.484%.
As for `COc1cc(CNC(C)c2ccccc2)cc(Br)c1OCC(N)=O` (centres unmarked), the “% Inhibition @ 10 uM” value is -5.54%.
On to `O=c1c2ccccc2ncn1Cc1ccco1`, for which the “% Inhibition @ 10 uM” value is listed as -0.116%.
The result for `O=C(Cn1cnc(S(=O)(=O)N2CCCC2)c1)NC1CCCCC1` reads 2.14%.
Regarding `COC(=O)c1ccc(OCC2c3cc(OC)c(OC)cc3CCN2C(=O)COc2ccccc2)cc1` (centres unmarked), the “% Inhibition @ 10 uM” value is reported as -1.97%.
The result for `O=C(CN(c1ccc2c(c1)OCCO2)S(=O)(=O)c1ccccc1)NC1CC2CCC1C2` (centres unmarked) reads -2.29%; that for `Cc1ccc(-c2nn(CCC(=O)NCCN3CCOCC3)c(=O)c3ccccc23)cc1`, -1.17%; that for `COc1ccc(S(=O)(=O)Nc2cc3c(cc2C(C)=O)OCO3)cc1`, 2.64%.
For the compound `COc1cccc(C2=NOC(C(=O)N3CCOCC3)C2)c1OC` (centres unmarked), the “% Inhibition @ 10 uM” value came to 1.24%.
`Clc1ccc(N2CCN(Cc3cccc(Cl)c3Cl)CC2)cc1`: the “% Inhibition @ 10 uM” value amounted to 3.16%.
`Cc1c(Cc2ccccc2)sc(NC(=O)COc2ccccc2)c1C(N)=O`: the “% Inhibition @ 10 uM” value was -1.28%.
The result for `CCOC(=O)C1CC(=O)Nc2cc(OC)c(OC)cc21` (centres unmarked) reads 3.18%; that for `Cc1cccc(CNCc2c(C(=O)O)n(Cc3cccc(F)c3)c3cc(C)ccc23)c1`, -2.37%; that for `CCN(CC)C1CC(=O)N(c2ccc(C(C)C)cc2)C1=O` (centres unmarked), 2.98%.
Turning to `Nc1c(C(=O)NCc2ccc3c(c2)OCO3)nnn1Cc1cccc(C(F)(F)F)c1`, the “% Inhibition @ 10 uM” value was -2.25%.
On to `Cc1ccccc1CNC(=O)CN1C(=O)c2cccc3cccc1c23`, for which the “% Inhibition @ 10 uM” value stood at 2.78%.
Under `Cc1ccccc1N1Cc2ccccc2C1` stands -2.24%; under `CS(=O)(=O)NCCNC(=O)c1c(O)oc2ccccc2c1=O`, 3.34%.
As to `CCCC(=O)Nc1c(C(=O)c2ccc(C)cc2)oc2ccccc12`, the “% Inhibition @ 10 uM” value worked out at 3.93%.
Under `O=C1NC2C(NC(=O)N2c2ccccc2)N1c1ccccc1` (centres unmarked) stands -3.74%; under `Cc1ccc(NC(=O)c2sc3nc(C)cc(C)c3c2N)c(Br)c1`, 3.81%; under `Cc1ccccc1OCCCCc1c(C)n[nH]c1C`, -4.3%.
The result for `CC1CCCC(N2CCN(C=O)CC2)C1` (centres unmarked) reads 3.19%.
Regarding `Cc1ccc(C(=O)N/C(=C/c2ccco2)C(=O)Nc2ccccc2C)cc1`, the “% Inhibition @ 10 uM” value was -2.8%.
In the case of `CC[C@H](C)C(NC(=O)C1CCN(C(=O)OC(C)(C)C)CC1)C(=O)NC(CCc1ccccc1)C(=O)CO` (some centres unmarked), the “% Inhibition @ 10 uM” value is -3.97% and -5.64%.
For the compound `OC1=C2C(=Nc3nc(-c4cccnc4)nn3C2c2ccc(Cl)cc2)CCC1` (centres unmarked), the “% Inhibition @ 10 uM” value was determined as 3.59%.
As to `CC1=NN(c2ccccc2)C(=O)C(c2ccccc2)(c2ccccc2)O1`, the “% Inhibition @ 10 uM” value is on record as -7.76%.
The result for `COc1ccccc1CNC(=O)CCN1N=C(c2ccccc2)CCC1=O` reads -2.94%; that for `COc1ccc(NC(=O)C(CC2CCCCC2)C(=O)NCC#N)cn1` (centres unmarked), -0.214%.
`COc1ccccc1C(=O)Nc1cc(-c2nc3ncccc3o2)ccc1C`: the “% Inhibition @ 10 uM” value is listed as -0.67%.
The result for `Cc1ccc(NC(=O)/C=C/c2ccc3c(c2)OCO3)c(Br)c1` reads -3.94%.
Turning to `CC1CCN(S(=O)(=O)c2ccc(NC(=O)C(C)Oc3ccc(F)cc3)cc2)CC1` (centres unmarked), the “% Inhibition @ 10 uM” value is on record as -5.31%.
Under `CC(NC(=O)c1ccc(S(=O)(=O)N2CCOCC2)cc1)C12CC3CC(CC(C3)C1)C2` (centres unmarked) stands -1.84%.
Take `COc1ccccc1-c1c(C)nn2c(SCC(=O)N3CCN(c4ccccn4)CC3)cc(C)nc12`: the “% Inhibition @ 10 uM” value is reported as -1.7%.
Under `CC(C)c1ccc(NC(=O)COc2ccc(Br)cc2)cc1` stands -5.11%; under `COc1ccc(NC(=O)CN2C(=O)S/C(=C/c3cccn3-c3ccc(C(=O)O)cc3)C2=O)cc1`, 9.95%.
